Source: publication PMC4336329 (PLoS ONE, 2015)
In all, about 310,000 compounds went through this assay and about 14,000 (4.5%) showed an effect of 50% or more. Effects have a minus sign here. The list shows a part of the results.

Molecular target: human ether-à-go-go-related gene (hERG) potassium channel (human, UniProt Q12809)
Experiment: primary screen, population patch clamp on CHO cells stably expressing hERG
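Note: peak tail current of the secondary pulse compared with the same well before compound.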

Sequence of human ether-à-go-go-related gene (hERG) potassium channel (Q12809 whole entry, looked up): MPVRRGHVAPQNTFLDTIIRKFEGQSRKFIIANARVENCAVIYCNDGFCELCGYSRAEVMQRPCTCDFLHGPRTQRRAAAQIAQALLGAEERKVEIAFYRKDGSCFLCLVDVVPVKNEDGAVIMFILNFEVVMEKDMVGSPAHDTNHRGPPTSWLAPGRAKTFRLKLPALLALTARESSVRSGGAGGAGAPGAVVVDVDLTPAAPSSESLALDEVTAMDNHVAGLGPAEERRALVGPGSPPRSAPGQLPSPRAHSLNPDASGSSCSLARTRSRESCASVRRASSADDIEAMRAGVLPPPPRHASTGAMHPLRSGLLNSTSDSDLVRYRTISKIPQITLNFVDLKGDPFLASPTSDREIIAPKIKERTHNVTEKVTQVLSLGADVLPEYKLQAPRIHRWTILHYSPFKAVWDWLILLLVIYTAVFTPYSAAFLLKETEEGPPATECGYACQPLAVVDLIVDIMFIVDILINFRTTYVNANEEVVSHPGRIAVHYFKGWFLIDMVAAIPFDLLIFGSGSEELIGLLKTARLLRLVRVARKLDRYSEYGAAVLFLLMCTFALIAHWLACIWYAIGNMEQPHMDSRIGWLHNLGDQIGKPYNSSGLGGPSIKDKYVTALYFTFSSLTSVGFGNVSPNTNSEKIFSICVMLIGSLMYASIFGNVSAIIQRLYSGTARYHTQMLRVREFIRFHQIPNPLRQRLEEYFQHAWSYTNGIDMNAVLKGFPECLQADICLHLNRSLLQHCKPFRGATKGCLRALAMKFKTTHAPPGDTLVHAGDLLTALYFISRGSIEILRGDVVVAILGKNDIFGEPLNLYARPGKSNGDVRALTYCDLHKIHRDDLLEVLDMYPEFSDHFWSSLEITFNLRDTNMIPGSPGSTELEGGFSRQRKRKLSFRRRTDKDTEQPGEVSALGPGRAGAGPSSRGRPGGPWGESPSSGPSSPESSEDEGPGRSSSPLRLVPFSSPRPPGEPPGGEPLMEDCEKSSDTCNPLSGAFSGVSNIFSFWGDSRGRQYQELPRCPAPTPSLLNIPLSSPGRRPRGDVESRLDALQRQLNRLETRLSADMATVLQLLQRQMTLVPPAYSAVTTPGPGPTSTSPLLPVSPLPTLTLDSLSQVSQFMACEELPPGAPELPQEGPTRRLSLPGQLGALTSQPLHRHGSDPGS

For C[N+](C)(C)CCOc1ccc([N+](=O)[O-])cc1.[Br-], which “hERG current change (%, negative = inhibition) at 10uM” value is on record?
The value was -28.5%.

For O=C(NCC1CCCN1S(=O)(=O)c1cccs1)c1ccc(Cl)cc1 (centres unmarked), which “hERG current change (%, negative = inhibition) at 10uM” value is on record?
The value was -32.7%.

How did the “hERG current change (%, negative = inhibition) at 10uM” value turn out when COC(=O)c1nn(-c2ccc(OC)cc2)ccc1=O was run?
The value was 13.5%.

How did the “hERG current change (%, negative = inhibition) at 10uM” value turn out when O=c1c2ccccc2nc(-c2ccco2)n1-c1ccccn1 was run?
The value was 0.658%.

For Cl.Cn1c(=O)c2c(nc(N3CCOCC3)n2CCCNC2=NCCC2)n(C)c1=O, which “hERG current change (%, negative = inhibition) at 10uM” value is on record?
Its value is 17.9%.

CCOC(=O)c1sc(NC(=O)c2ccc(S(=O)(=O)N3CCCCC3)cc2)nc1-c1ccccc1 was tested. Which “hERG current change (%, negative = inhibition) at 10uM” value did it give?
Its value is 18.1%.

COc1cc(C)c(NC(=O)COc2ccc3c(c2)CCC3)cc1OC was tested. Which “hERG current change (%, negative = inhibition) at 10uM” value did it give?
The value was -5.74%.

Which “hERG current change (%, negative = inhibition) at 10uM” value does the source give for O=C(CNC(=O)Cn1ccc2ccccc2c1=O)NCCCN1CCCCCC1 here?
Its value is 5.29%.

With O=C(NCc1ccc(OC(F)(F)F)cc1)C1CC2Cn3c(nc4ccccc43)C2N1c1ccccc1 (centres unmarked) as the molecule, how does the “hERG current change (%, negative = inhibition) at 10uM” value read?
Its value is -61.3%.

How did the “hERG current change (%, negative = inhibition) at 10uM” value turn out when Nc1c(-c2ccccc2)c(CN2CCOCC2)nn1-c1ccc(C(=O)O)cc1.O=S(=O)(O)O was run?
Its value is -10.1%.

Which “hERG current change (%, negative = inhibition) at 10uM” value does the source give for C/C(=N\OCc1ccc(C#N)cc1)c1ccccc1 here?
Its value is 12.1%.

With Clc1ccc(-n2cccc2/C=N/n2cnnc2)cc1 as the molecule, how does the “hERG current change (%, negative = inhibition) at 10uM” value read?
Its value is -6.08%.

How did the “hERG current change (%, negative = inhibition) at 10uM” value turn out when O=C(CCC(=O)c1cccs1)Nc1ccc(F)c(F)c1F was run?
Its value is 0.0728%.

For CC(Sc1nnc(NC2CCCCC2)s1)C(=O)N1CCOCC1 (centres unmarked), which “hERG current change (%, negative = inhibition) at 10uM” value is on record?
The value was 11.7%.

Which “hERG current change (%, negative = inhibition) at 10uM” value does the source give for CCOc1ccc(N(CC(=O)NCCSCc2ccccc2Cl)S(C)(=O)=O)cc1 here?
Its value is -4.64%.

For O=S(=O)(c1cccc2cccnc12)N1CCN(Cc2ccccc2)CC1, which “hERG current change (%, negative = inhibition) at 10uM” value is on record?
The value was -0.188%.

With Cc1ccc(-c2nn3c(C)nnc3c3ccccc23)cc1S(=O)(=O)NCc1ccco1 as the molecule, how does the “hERG current change (%, negative = inhibition) at 10uM” value read?
The value was -33.3%.

For CCCCN(C(=O)c1ccc(C)c(S(=O)(=O)N2CCOCC2)c1)c1c(N)n(CCCC)c(=O)[nH]c1=O, which “hERG current change (%, negative = inhibition) at 10uM” value is on record?
The value was -12.4%.

Which “hERG current change (%, negative = inhibition) at 10uM” value does the source give for O=C(O)/C=C/c1nc(-c2ccccc2)n2ccccc12 here?
Its value is -33.3%.

Which “hERG current change (%, negative = inhibition) at 10uM” value does the source give for CC(C)C[C@@H](CN=[N+]=[N-])N1CCN(Cc2ccccc2)CCC1=O here?
Its value is -3.5%.

Which “hERG current change (%, negative = inhibition) at 10uM” value does the source give for CCOc1ccccc1NC(=O)Cn1nc(-c2ccco2)ccc1=O here?
The value was -2.85%.

For O=C(CCN1C(=O)COc2ccccc21)N1CCN(c2ccccc2)CC1, which “hERG current change (%, negative = inhibition) at 10uM” value is on record?
The value was -15%.

With COC(=O)c1ccc(CSc2nnnn2Cc2ccccc2)cc1 as the molecule, how does the “hERG current change (%, negative = inhibition) at 10uM” value read?
The value was -9.3%.

With CCOc1ccc(-c2nnn(CC(=O)c3ccc4c(c3)OCCO4)n2)cc1 as the molecule, how does the “hERG current change (%, negative = inhibition) at 10uM” value read?
The value was -3.36%.

For O=C(CN(c1ccc(F)cc1)S(=O)(=O)c1ccc2c(c1)OCCO2)Nc1ccc2c(c1)OCO2, which “hERG current change (%, negative = inhibition) at 10uM” value is on record?
Its value is 14.4%.

With CCCc1nc2c(c(=O)c3ccccc3n2C)c(=O)n1-c1ccc(F)cc1 as the molecule, how does the “hERG current change (%, negative = inhibition) at 10uM” value read?
Its value is 0.271%.

With CCOc1ccc(NC(=O)CSc2nnc(CNC(=O)c3cccs3)o2)cc1 as the molecule, how does the “hERG current change (%, negative = inhibition) at 10uM” value read?
Its value is -17.4%.

Which “hERG current change (%, negative = inhibition) at 10uM” value does the source give for COc1ccc(S(=O)(=O)N/N=C(/C)c2ccncc2)cc1 here?
Its value is 11.7%.

Cc1nn(C(C)C(=O)NCCc2cccs2)c(=O)c2nn(-c3ccccc3)c(C)c12 (centres unmarked) was tested. Which “hERG current change (%, negative = inhibition) at 10uM” value did it give?
The value was -5.1%.

O=C(NCc1cc(F)ccc1F)C1CCC(=O)N(C2CCCCCC2)C1 (centres unmarked) was tested. Which “hERG current change (%, negative = inhibition) at 10uM” value did it give?
The value was 1.54%.

For O=C(COC(=O)c1ccc(O)cc1O)NC1CCCCCC1, which “hERG current change (%, negative = inhibition) at 10uM” value is on record?
Its value is -2.41%.

How did the “hERG current change (%, negative = inhibition) at 10uM” value turn out when Cc1ccc(-c2nc3ccccc3c(=O)n2O)cc1 was run?
The value was 23.4%.

O=C(NCc1ccccc1)c1ccc(CSc2ccccc2)o1 was tested. Which “hERG current change (%, negative = inhibition) at 10uM” value did it give?
Its value is -20.4%.

COc1ccc(C(N)=O)cc1N was tested. Which “hERG current change (%, negative = inhibition) at 10uM” value did it give?
Its value is 21.7%.

How did the “hERG current change (%, negative = inhibition) at 10uM” value turn out when O=C(COC(=O)Cc1ccccc1[N+](=O)[O-])NCc1ccc(Cl)cc1 was run?
The value was -11%.

With Cc1ccc2oc(=O)c3cc(C(=O)N4CCN(C)CC4)sc3c2c1 as the molecule, how does the “hERG current change (%, negative = inhibition) at 10uM” value read?
The value was -16.8%.

With CC(=O)c1ccc(N2CCN(C(=O)c3cccs3)C(C)C2)c(F)c1 (centres unmarked) as the molecule, how does the “hERG current change (%, negative = inhibition) at 10uM” value read?
Its value is -17%.

For O=C(O)c1ccc(-n2c(-c3ccccc3)n[nH]c2=S)cc1, which “hERG current change (%, negative = inhibition) at 10uM” value is on record?
Its value is 16.5%.

Which “hERG current change (%, negative = inhibition) at 10uM” value does the source give for CC1=C(C(=O)N2CCCCC2)C(c2cccs2)NC(=O)N1 (centres unmarked) here?
The value was 6.88%.

How did the “hERG current change (%, negative = inhibition) at 10uM” value turn out when O=C(Nc1ccsc1C(=O)NC1CCCCC1)c1ccc(F)cc1 was run?
Its value is -4.11%.

How did the “hERG current change (%, negative = inhibition) at 10uM” value turn out when Brc1ccc(CNCC2CCCO2)cc1 (centres unmarked) was run?
The value was 4.37%.

How did the “hERG current change (%, negative = inhibition) at 10uM” value turn out when CCN(CC)C(=O)CSc1nc2c(sc(=S)n2-c2ccccc2)c(=O)n1-c1ccc(OC)cc1OC was run?
The value was 0.414%.

Which “hERG current change (%, negative = inhibition) at 10uM” value does the source give for CN1C(=O)C2ON(c3ccccc3)C(c3cccs3)C2C1=O (centres unmarked) here?
Its value is -13.6%.

CCOc1ccc(NC(=O)CSc2nnc(-c3ccccc3Cl)n2Cc2ccco2)cc1 was tested. Which “hERG current change (%, negative = inhibition) at 10uM” value did it give?
Its value is -16.7%.

For Cc1oc(-c2ccc(Cl)cc2)nc1CN1CCCC(C(=O)NCc2ccco2)C1 (centres unmarked), which “hERG current change (%, negative = inhibition) at 10uM” value is on record?
The value was -71.9%.

For Cc1cc(S(=O)(=O)N2CCCC(N(C)CCc3ccccn3)C2)c(C)s1 (centres unmarked), which “hERG current change (%, negative = inhibition) at 10uM” value is on record?
Its value is -46.6%.

Which “hERG current change (%, negative = inhibition) at 10uM” value does the source give for O=C(Nc1ccc(Br)cc1F)c1cccnc1 here?
Its value is -5.78%.

With COc1cc2c(cc1OC)CN(Cc1cc(=O)n3cc(C)ccc3n1)CC2 as the molecule, how does the “hERG current change (%, negative = inhibition) at 10uM” value read?
The value was -33.1%.

O=C(NCC1CCCO1)C1CCCN(S(=O)(=O)c2ccc(Cl)cc2)C1 (centres unmarked) was tested. Which “hERG current change (%, negative = inhibition) at 10uM” value did it give?
Its value is -0.983%.

For CCc1cccc2c(C(=O)CN3C(=O)N(C)C4(CCCCC4)C3=O)c[nH]c12, which “hERG current change (%, negative = inhibition) at 10uM” value is on record?
The value was -11.7%.

With Cc1ccccc1Cn1cc(/C=N/n2cnnc2)c2ccccc21 as the molecule, how does the “hERG current change (%, negative = inhibition) at 10uM” value read?
Its value is 14.8%.

Which “hERG current change (%, negative = inhibition) at 10uM” value does the source give for O=C(CSc1nnc(Cc2ccc3c(c2)OCO3)n1C1CCCCC1)NC1CCCC1 here?
Its value is -0.948%.

Which “hERG current change (%, negative = inhibition) at 10uM” value does the source give for COc1ccccc1N1CCN(S(=O)(=O)CCNC(=O)Cc2ccc(F)cc2)CC1 here?
Its value is -18.7%.

CC1Cc2ccccc2N1C(=O)CN1C(=O)CN(C)C(=O)c2ccccc21 (centres unmarked) was tested. Which “hERG current change (%, negative = inhibition) at 10uM” value did it give?
The value was 11.3%.

How did the “hERG current change (%, negative = inhibition) at 10uM” value turn out when CCn1c(SCC(=O)NNC(=O)c2ccc(C)cc2)nnc1C1CC1 was run?
Its value is 26.2%.

COc1ccc(CNC(=O)c2ccc(N3CCOCC3)c([N+](=O)[O-])c2)cc1 was tested. Which “hERG current change (%, negative = inhibition) at 10uM” value did it give?
Its value is -52.1%.
